Data taken from the supplement of paper PMC10338343.
± gives the standard deviation. In all, about 5,500 sequences were measured (“pre-steady-state target cleavage rate”: median about 0.1, highest 2% from about 0.64 on). This is a selection; strong and weak results do not stand in their true shares.

System: MIWI (PIWIL1) piRISC loaded with piRNA #2 (30 nt)
Experiment: pre-steady-state target cleavage rate (min^-1); MIWI and MILI are mouse PIWI proteins and EfPiwi is from a freshwater sponge; tags in brackets are library labels; higher = faster piRNA-guided slicing of the target
Settings: guide: piRNA #2 5'p-UUAGGUAACCCAGUAGAUCCAGAGGAAUUC; auxiliary factor: 500 nM mouse GTSF1
How it was run: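 Active affinity-purified piRISC (1 nM) loaded with one synthetic guide was mixed with a transcribed, DNA-blocked target RNA library (0.1 nM), with or without 500 nM GTSF1 partner protein, in HEPES–potassium acetate buffer at 33 °C for 0–8 or 0–960 min. Uncleaved targets were sequenced, normalised to depth and to weakly complementary targets, and pooled across three trials, with k3 capped at 0.0001 min^-1. The pre-steady-state cleavage rate was determined with a burst-and-steady-state fit.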

| Sequence | pre-steady-state target cleavage rate |
| --- | --- |
| CAAUUCCUCUGGAUCUACUGGGAAUCCUAA | 0.211 ± 0.069 |
| CUUAAGGACUGGAUCUACUGGGUUACCUGA | 0.0361 ± 0.02 |
| CUUAAGGUCCGGAUCUACUGGGUUACCUAA | 0.12 ± 0.032 |
| GAAUUCCUCUGGUUCUACUGGGUUACCAAA | 0.427 ± 0.085 |
| CUUAAGGUCUGGAUCUACUGGCUUACCUAA | 0.0659 ± 0.016 |
| GAAUUCCUCAGCAUCUACUGGGUUACCUAA | 0.472 ± 0.034 |
| CUUAAGGUGUGGAUCUACUGGGUUACGUAA | 0.321 ± 0.056 |
| CUUAACCUCUGGAUCUACUGUGUUACCUAA | 0.597 ± 0.045 |
| CUUUUCCUCUGGAUCUACUGGGUUACCUGAA | 0.269 ± 0.075 |
| CUUUUCCUCGUGGAUCUACUGGGUUACCUAA | 0.148 ± 0.027 |
| GAAUUGCUCUGGAUCUACUGCGUUACCUAA | 0.21 ± 0.044 |
| CUUAAGGUCUGGAUCUACUGCGUUAGCUAA | 0.0776 ± 0.033 |
| CUUAAGGUCUGCAUCUACUGGGAUACCUAA | 0.0624 ± 0.019 |
| CUUAAGCUCUCGAUCUACUCGGUUACCUAA | 0.0891 ± 0.008 |
| CUUAAGGCCUGGAUCUACUGGGUUACCUAA | 0.172 ± 0.013 |
| CAAUUCCUCUGGAUCAACUGCGUUACCUAA | 0.563 ± 0.076 |
| CAAUUCCUCUGGAUGUACUGGGUUACGUAA | 0.588 ± 0.047 |
| CUUAUCCUGUGGAUCAACUGGGUUACCUAA | 0.291 ± 0.036 |
| CUAUUCCUCUGGUUCUACUCGGUUACCUAA | 0.125 ± 0.011 |
| CUUAAGCUCUGGAUCUACUGGGUUACCGAA | 0.0806 ± 0.021 |
| CAAUUCCUCUGGUUGUACUGGGUUACCUAA | 0.556 ± 0.048 |
| GAAUUCCUCUGGAUCAUCUGGGUUACCUAA | 0.25 ± 0.032 |
| CUUAAGGAGUGGAUCUUCUGGGUUACGUAA | 0.0237 ± 0.012 |
| CUUAAGGACUGGAUCUACUGGGUUACCUGAA | 0.0284 ± 0.019 |
| CUAUUCCUCUGGAUCUAGUGGGUAACCUAA | 0.0443 ± 0.012 |

| Sequence | pre-steady-state target cleavage rate |
| --- | --- |
| CAAUUGCUCUGGAUCUACAGGGUUACCUAA | 0.124 ± 0.013 |
| CUUUUCCUCUGGAUCAAGUGGGUUACCUAA | 0.00851 ± 0.0027 |
| CUAUUCCUCUGGAUGUAGUGGGUUACCUAA | 0.0853 ± 0.015 |
| CUUUUCGUCUGGAUCUACUGGGUUUCCUAA | 0.301 ± 0.035 |
| CUAAUCCUCUGCAUCUACUGGGUUACCUAA | 0.436 ± 0.032 |
| CUUAUCCUCUGGUUCUACUCGGUUACCUAA | 0.134 ± 0.012 |
| CUUAAGGUUUGGAUCUACUGGGUUACCUAA | 0.362 ± 0.045 |
| GAAUUCCUCGGGAUCUACUGGGUUACCUAA | 0.206 ± 0.055 |
| GAAUUCCUCUCGAUCUACAGGGUUACCUAA | 0.408 ± 0.03 |
| CUUAAGGUCUCGUUCUACUGGGUUACCUAA | 0.017 ± 0.006 |
| CUUAAGGAGUGGAUGUACUGGGUUACCUAA | 0.0723 ± 0.027 |
| CUUAAGGAGAGGAUUUACUGGGUUACCUAA | 0.00456 ± 0.003 |
| CUAUUCCUCUGGAUGUACUGGGUUACCAAA | 0.413 ± 0.042 |
| CUAUUGCUCUGGAUCUUCUGGGUUACCUAA | 0.0988 ± 0.023 |
| CUUAAGGAGUGGAUCUACUGGGUUACCCUAA | 0.043 ± 0.016 |
| CUAUUCCUCUGGAUCUUCUGGGUUACCUAA | 0.412 ± 0.054 |
| CUUAACCUCUGGAUCUACUGGGUUACCGAA | 0.136 ± 0.028 |
| CUUAACCUCUGGAUCUACGGGGUUACCUAA | 0.0478 ± 0.0075 |
| CUUUUCCUCUGGAUCUUCUGGGUUUCCUAA | 0.166 ± 0.038 |
| GAAUUCCUCUGGAUCUACAGGGUUUCCUAA | 0.157 ± 0.025 |
| CUUUUCCUCUGGAUCUACCGGGUUACCUAA | 0.143 ± 0.013 |
| CUAUUCCUCUGGAUCUACUGGGUUAGCCUAA | 0.51 ± 0.063 |
| CAAUUCCUCAUGGAUCUACUGGGUUACCUAA | 0.537 ± 0.059 |
| CAAUUCCUCUGGAUCUACUGCGUUUCCUAA | 0.136 ± 0.034 |
| CUUAAGGAGAGCAUCUACUGGGUUACCUAA | 0.00512 ± 0.0034 |

| Sequence | pre-steady-state target cleavage rate |
| --- | --- |
| CUUUUCCUCUGCUUCUACUGGGUUACCUAA | 0.432 ± 0.039 |
| CUAUUCCUUGGAUCUACUGGGUUACCUAA | 0.48 ± 0.034 |
| CUAUUCCUCUGGAUCUACUGGGUUACCUAG [g2:g28:cont:t1G] | 0.441 ± 0.056 |
| CUUAACCUCUGCAUCUACUGGGUUACGUAA | 0.168 ± 0.02 |
| CUUAACGUCUGGAUCUACUGGGUUAGCUAA | 0.15 ± 0.018 |
| CUUAUCCUCUGCAUCUACUGGGUUAGCUAA | 0.224 ± 0.028 |
| CUUUUCCUCUGGUUCUACUGGGUUACGUAA | 0.504 ± 0.053 |
| CAAUUCCUCUGGAUCUACUGGGCUUACCUAA | 0.0762 ± 0.024 |
| CUUAAGGUGUGGUUCUACUGGGUUACCUAA | 0.0635 ± 0.011 |
| CUUAAGCUCGGGAUCUACUGGGUUACCUAA | 0.0941 ± 0.038 |
| CUUUUCCUCUGGAUCUUACUGGGUUACCUAA | 0.00337 ± 0.0032 |
| CAAUUCCUCUCGAUCUACUGGGUUACGUAA | 0.885 ± 0.061 |
| CUUAUCCUCUGGAUGUACUGCGUUACCUAA | 0.419 ± 0.083 |
| CUAUUCCUGUGGAUCUACAGGGUUACCUAA | 0.294 ± 0.024 |
| CUUAAGGAGACCUAGUUCUGGCUUACCUAA | < 0.0001 |
| CUUAACCUCUGGAUCUACUGGGUUACCUGAA | 0.0816 ± 0.025 |
| CUUAAGCUCUGGAUCCACUGGGUUACCUAA | 0.0429 ± 0.0074 |
| GAAUUCCUCUGGAUCUACUGGGUUACCCAA | 0.341 ± 0.12 |
| CUUUUCCUCUGGAUCUUCUGGGUAACCUAA | 0.0537 ± 0.011 |
| CUUAACCUCUGGAUCUACUGGGUUAGGUAA | 0.0297 ± 0.007 |
| CAAUUCCUCUGGAUCUACUGGGUUACCUCA | 0.329 ± 0.048 |
| GAAUUCCUCUCGAUCUACUGGCUUACCUAA | 0.113 ± 0.017 |
| CAAAUCCUCUGGAUCUACUGCGUUACCUAA | 0.563 ± 0.067 |
